Experimental findings from PubChem BioAssay AID1508624 (National Center for Advancing Translational Sciences (NCATS), 2021) are described below.

The campaign covered roughly 48,000 compounds. About 120 (0.25%) were called active. Not shown: some 4% with an inconclusive outcome. Calls come from the whole dose curve; as a rule, active = well fitted activation curve with a large enough effect; inconclusive = small, poorly fitted or top-dose-only effect, or another doubt; inactive = no such curve, though single readings can be large or run the other way. The list shows a part of the results.

The nature of the test: Primary qHTS for Identification of Small Molecule Activators of Huntingtin-Antisense Promoter Activity. Note: nearly all actives have a fitted effect of over 55% in size. The note with it: HEK293 HTT-AS promoter firefly luciferase reporter, 24 h; series mostly up to 57.5 µM; activity change, positive = activation: at the top concentration. The method, boiled down:
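HEK293 Fluc reporter, 2,500 cells/well, 24 h pre-culture; cpds up to 57.5 uM final, 24 h 37 degrees C; Dual-Glo, 10 min RT; normalized vehicle = 0%, zero RLU = -100%.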
(In general: Quantitative high-throughput screening tests each substance at several concentrations.)
As to `O=C1CCSC2(C(=O)N(Cc3ccc(F)cc3)c3ccccc32)N1c1ccccc1` (stereo unspecified), the “activity change, positive = activation” value is inactive: -31.5%. With `COc1ccc(Nc2nnc(-c3ccc(C)c(S(=O)(=O)NCc4nc5ccccc5[nH]4)c3)c3ccccc23)cc1`, the “activity change, positive = activation” value was inactive: -36.3%. As for `CCC(C)Sc1oc(-c2ccco2)nc1S(=O)(=O)c1ccc(Cl)cc1` (stereo unspecified), the figure is inactive: -6.39%; as for `Cc1ccc(NC(=O)Cn2nnc(C(=O)NCCc3ccccc3)c2N)cc1`, inactive: -15.7%; as for `Clc1ccc(-c2csc(-c3nc(-c4ccc(Br)s4)cs3)n2)cc1`, inactive: -6.19%. As for `O=C(NCc1ccc(Cl)cc1)c1ccc2c(c1)NC(=O)C(CS(=O)(=O)Cc1ccc(F)cc1Cl)N2` (stereo unspecified), the figure is inactive: -27.4%; as for `CCc1ccc(NC(=O)C2CCCN(S(=O)(=O)c3cccc4nsnc34)C2)cc1` (stereo unspecified), inactive: -23.5%; as for `Cc1ccc(-c2nc(NC(=O)CSc3ccc4ccccc4n3)ns2)cc1`, inactive: -0.233%. As for `Cc1ccccc1NC(=O)c1nc(S(C)(=O)=O)ncc1N(Cc1ccco1)Cc1sccc1C`, the figure is inactive: -22.8%; as for `Cc1ccccc1OCC(=O)Nc1ccc(C(=O)OCc2cc(=O)n3ccsc3n2)cc1`, inactive: 7.39%; as for `CCN(C(=O)CCc1nc(-c2ccc(C)cc2)no1)c1cccc(Cl)c1`, inactive: -10.8%. With `COc1cc2c(cc1OC)C(COc1ccc3c(C)cc(=O)oc3c1)N(C(=O)Cc1ccccc1)CC2` (stereo unspecified), the “activity change, positive = activation” value was inactive: 0%. Take `COC(=O)c1cc2sccc2n1CC(=O)Nc1ccc(C)cc1C`: the “activity change, positive = activation” value is inactive: 8.45%. With `Cc1cc(C)c(Cn2c3ccccc3c3cnn(CC(=O)NCCC4=CCCCC4)c(=O)c32)c(C)c1`, the “activity change, positive = activation” value was inactive: -3.93%. In the case of `COc1cccc(CNC(=O)c2ccc3nc(-c4ccccc4)c(-c4ccccc4)nc3c2)c1OC`, the “activity change, positive = activation” value is inactive: 4.16%.

As for `CCOc1ccccc1C(=O)NC1(C(F)(F)F)C(=O)Nc2c1c(=O)[nH]c(=O)n2-c1ccccc1` (stereo unspecified), the “activity change, positive = activation” value is inactive: -3.75%. Consider `Cc1ccc(S(=O)(=O)c2cn(Cc3ccccc3)c3cc(N4CCCC4)c(F)cc3c2=O)cc1`, for which the “activity change, positive = activation” value was inactive: -8.18%. The same measure for `CCc1nnc(SCc2nc(-c3cccc(Cl)c3)oc2C)c2cc3sc(C)cc3n12`: inactive: 2.74%; for `COc1cc(OC)c(NS(=O)(=O)c2cc3c(cc2C)N(C(C)=O)CCO3)cc1Cl`: inactive: -23.7%; for `COc1ccccc1NC(=O)CN(c1cc(C)cc(C)c1)S(=O)(=O)c1c(C)[nH]c(=O)[nH]c1=O`: inactive: -5.31%. As for `NC(=O)c1c(NC(=O)c2cc(-c3ccc(F)cc3)on2)sc2c1CCCC2`, the figure is inactive: -10.5%; as for `Cc1cccc(NC(=O)Cn2nnc(C(=O)NCc3cccs3)c2N)c1`, inactive: -13.7%; as for `CCC(C(=O)Nc1ccc(C(C)C)cc1)n1nc(C)n2c(cc3cc(C)ccc32)c1=O` (stereo unspecified), inactive: -6.12%. `CN(C)c1ccc(CNC(=O)C2CCCN(S(=O)(=O)c3ccc4c(c3)CCCC(=O)N4)C2)cc1` (stereo unspecified): the “activity change, positive = activation” value was inactive: -40.4%. With `COc1ccc(Cl)cc1NC(=O)CCn1c(=O)c2cccn2c2ccccc21`, the “activity change, positive = activation” value is inactive: -20.7%. With `Cc1ccc(C)c(Cn2c(=O)cc(C(F)(F)F)c3c(C)nn(C)c32)c1`, the “activity change, positive = activation” value is inactive: -16.3%.

With `Cc1ccccc1C(=O)NCc1nc(-c2ccc(Cl)cc2)no1`, the “activity change, positive = activation” value was inactive: -26.2%.

For the compound `Cc1ccc(NC(=O)c2c(C)nc3sc(C(=O)Nc4ccc(F)cc4)c(N)c3c2-c2ccc(Cl)cc2)c(C)c1`, the “activity change, positive = activation” value was inactive: 0%.

Regarding `COc1cccc(NC(=O)CCc2nnc3n(Cc4ccccc4Cl)c(=O)c4ccccc4n23)c1`, the “activity change, positive = activation” value was inactive: 4.32%. As for `CCOC(=O)C(O)c1ccccc1` (stereo unspecified), the figure is inactive: 0.678%; as for `Cc1cccc(CN2C(=O)c3ccccc3S(=O)(=O)c3ccc(C(=O)N(C)Cc4ccccc4)cc32)c1`, inactive: -31.7%; as for `O=C1CC(c2nnc(Cc3c(F)cccc3Cl)o2)CN1c1ccccc1` (stereo unspecified), inactive: -16.3%.

For the compound `Cc1ccc(Nc2c(-c3ccc(N4CCOCC4)cc3)nc3cccc(C)n23)cc1`, the “activity change, positive = activation” value is inactive: 0.0036%. As for `CCOc1ccccc1C(=O)Nc1ccc(-n2nncc2-c2ccccc2)cc1`, the figure is inactive: -24.7%; as for `CCOC(=O)c1ccc(NC2(c3ccccc3)C(=O)c3ccccc3C2=O)cc1`, inactive: -1.83%; as for `COc1ccccc1C(=O)Nc1nnc(S(=O)(=O)N2CCN(c3ccc(F)cc3)CC2)s1`, inactive: -8.31%. The same measure for `CCOC(=O)N1CCc2c(sc(NCc3cccc(F)c3)c2C(=O)Nc2ccc(OC)cc2)C1`: inactive: -26.2%; for `Cc1ccc(CNc2nc3ccc(Cl)cc3n3nnnc23)cc1`: inactive: 7.62%; for `COc1ccc(-n2cc(-c3ccccc3)nc2SCC(=O)Nc2ccccc2C)cc1`: inactive: -16.7%.

Regarding `COc1cc(NC(=O)CCn2c(=O)oc3ccccc32)cc(OC)c1OC`, the “activity change, positive = activation” value was inactive: -15.2%. The same measure for `COC(=O)CC1Oc2ccc(F)cc2-n2cc(-c3ccc(C)cc3)nc21` (stereo unspecified): inactive: -34.9%. The same measure for `Cc1cc(-c2ccc(C)c(S(=O)(=O)Nc3ccccn3)c2)on1`: inactive: -7.09%; for `COc1cc(OC)c(NS(=O)(=O)c2c(C(=O)N3CCCCCC3)c(C)n(C)c2C)cc1Cl`: inactive: -10.9%; for `COc1ccc(N(Cc2cccs2)C(=O)COc2cccc(C)c2C)cc1`: inactive: -37.2%. As for `CCN1CCN(c2ncc3c(n2)CCN(CC(C)C)C3)CC1`, the figure is inactive: -13.2%; as for `CCOc1ccc(-n2ccnc2SCC(=O)Nc2cccc3ccccc23)cc1`, inactive: -14.2%. For the compound `Cc1cccc(CC(=O)N2CC(=O)Nc3ccc(C)cc3C2c2ccc(F)cc2)c1` (stereo unspecified), the “activity change, positive = activation” value was inactive: -20.7%. The same measure for `COc1ccc(Br)cc1CNC(=O)c1ccc2nc(C(C)C)oc2c1`: inactive: -19.6%. The same measure for `CCOc1ccc2oc(=O)cc(CN3CCN(Cc4ccc(C)cc4)CC3)c2c1`: inactive: -14.7%. The same measure for `Cc1ccc(Nc2c3c(nc4nc(-c5cccs5)nn24)CCCC3)cc1F`: inactive: -14.3%. Regarding `COc1ccc(N2C(=O)CSC23C(=O)N(Cc2cccc(C(F)(F)F)c2)c2ccccc23)cc1` (stereo unspecified), the “activity change, positive = activation” value was inactive: -38.8%. Consider `Cc1oc(-c2ccc(Cl)cc2)nc1CS(=O)CC(=O)NCCc1ccccc1` (stereo unspecified), for which the “activity change, positive = activation” value is inactive: -3.53%. As for `CCN(CC)CC(=O)OCC(=O)[C@@]1(O)CC[C@H]2[C@@H]3CCC4=CC(=O)CC[C@]4(C)[C@H]3[C@@H](O)C[C@@]21C`, the figure is inactive: -3.58%.

`Cc1ccc(S(=O)(=O)c2nc(-c3cccs3)oc2SCC(=O)Nc2cc(C)cc(C)c2)cc1`: the “activity change, positive = activation” value is inactive: -26.4%. `COc1ccccc1OCC(=O)N(Cc1cccs1)C1CCS(=O)(=O)C1` (stereo unspecified): the “activity change, positive = activation” value is inactive: 2.29%. As for `CCOC(=O)Cn1nc(C)c(NC(=O)COc2ccccc2)c1C`, the figure is inactive: -4.27%. As for `COc1ccc(S(=O)(=O)NC(C)(C)C)cc1-c1nnc2c3ccccc3c(C)nn12`, the figure is inactive: -9.63%. In the case of `Cc1cccc(Cn2c(=O)n(CCCC(=O)NCc3ccccc3Cl)c(=O)c3ccccc32)c1`, the “activity change, positive = activation” value is inactive: -49.6%.

With `COc1ccccc1CNc1nc(-c2ccco2)nn1S(C)(=O)=O`, the “activity change, positive = activation” value is inactive: 16.2%.

As for `COCCNc1nc2c(c(=O)n(Cc3cccc(Cl)c3)c(=O)n2C)n1C`, the “activity change, positive = activation” value is inactive: -4%. As for `Cc1ccc(NC(=O)C2CCC(CNS(=O)(=O)c3ccc4c(c3)CCCC(=O)N4)CC2)cc1F` (stereo unspecified), the figure is inactive: -24.4%.

Regarding `COc1ccc2c(c1)c1c(c(=O)n(Cc3ccccc3)c(=O)n1Cc1ccccc1Cl)n2C`, the “activity change, positive = activation” value is inactive: -8.06%. `CS(=O)(=O)N1CCc2c(-c3cnc(N)nc3)nc(N3CCOCC3)nc21`: the “activity change, positive = activation” value was inactive: -5.55%.

Consider `CCc1ccc(NC(=O)C2=C(C)C(=O)OC23CCCCC3)cc1`, for which the “activity change, positive = activation” value is inactive: -17.2%. The same measure for `COc1ccc(OCC(=O)Nc2c(C(=O)N3CCN(c4ccccc4)CC3)oc3ccccc23)cc1`: inactive: -6.07%; for `CCOC(=O)c1c(-c2ccc(OC)c(OC)c2)csc1NC(=O)c1ccc(C)cc1`: inactive: -4.22%.

On to `CCCCN1CCCc2cc(CN(CCCN3CCOCC3)C(=O)Nc3ccc(CC)cc3)ccc21`, for which the “activity change, positive = activation” value is inactive: -29.8%. The same measure for `O=C(O)c1cccc(NC(=O)c2cc3cc(Br)cc(Br)c3oc2=O)c1`: inactive: -4.06%; for `O=C(NCc1ccc(F)cc1)c1cc2cccc3c2n1CCS3`: inactive: -21.7%. Turning to `COc1ccc(S(=O)(=O)N(CC(=O)NCCSc2ccccc2)c2ccc(C)cc2)cc1`, the activity change, positive = activation was inactive: 29.8% [at 11.5 µM, percent change from vehicle, -100% = no light]. As for `CC(=O)c1cccc(NC(=O)Cc2ccc(NC(=O)N3CCCCc4ccccc43)cc2)c1`, the figure is inactive: -16.2%; as for `COC(=O)c1ccc(NC(=O)C(=O)NCC(c2cccnc2)N2CCN(c3ccccc3)CC2)cc1` (stereo unspecified), inactive: -21.1%. As for `COc1ccc(S(=O)(=O)NCCc2sc3nc(-c4ccc(C)cc4)nn3c2C)cc1C`, the figure is inactive: -24.2%; as for `CCOC(=O)c1cc(-c2ccccc2)n(CCC(=O)NCCc2cccc(C)c2)c1C`, inactive: -29.7%. As for `COc1ccccc1CNC(=O)CCCCn1c(=O)c2ccccc2n(CC(=O)Nc2c(C)cc(C)cc2C)c1=O`, the figure is inactive: -9.16%; as for `CCOc1ccccc1CNC(=O)CCC(=O)N1CCSc2ccccc21`, inactive: -27.6%. For `COc1ccccc1Cc1nc2ccccc2nc1SCC(=O)Nc1ccc2c(c1)OCO2`, the “activity change, positive = activation” value is inactive: -3.9%. As for `Cc1ccc(NC(=O)CN2C(=O)C(c3ccc(C(C)(C)C)cc3)=NC2(C)C)cc1`, the figure is inactive: -17.4%; as for `CC(=O)[C@]1(O)Cc2c(O)c3c(c(O)c2[C@@H](O[C@H]2C[C@H](N)[C@H](O)[C@H](C)O2)C1)C(=O)c1ccccc1C3=O`, inactive: -37%. As for `CCCN(CCC)C(=O)CSc1c2c(nc3ccc(Cl)cc13)CCCC2`, the figure is inactive: -36.7%; as for `O=[N+]([O-])c1cc(-c2nc(-c3ccccc3)no2)ccc1NCc1cccnc1`, inactive: -36.5%; as for `CN1C(CSCC(F)(F)F)Nc2cc(Cl)c(S(N)(=O)=O)cc2S1(=O)=O` (stereo unspecified), inactive: -14.4%. The same measure for `Cc1cc(C)cc(-n2c(SCC(=O)Nc3cccc(F)c3)nc3c([nH]c4ccccc43)c2=O)c1`: inactive: -27.7%; for `Cc1ccc(C)c(NC(=O)C(Cc2ccccc2)n2cccc2)c1` (stereo unspecified): inactive: -21.7%. As to `COc1ccc(OC)c(NC(=O)Cn2c(=O)n(Cc3ccco3)c(=O)c3cc(OC)c(OC)cc32)c1`, the “activity change, positive = activation” value was inactive: -16.1%.

For the compound `Brc1ccc(Nc2c3c(nc4nncn24)CCC3)cc1`, the “activity change, positive = activation” value is inactive: -25.6%. Turning to `CC(C)C[C@H](NC(=O)CNC(=O)[C@H](Cc1ccc(O)cc1)NC(=O)[C@H](CO)NC(=O)[C@H](Cc1c[nH]c2ccccc12)NC(=O)[C@H](Cc1cnc[nH]1)NC(=O)[C@@H]1CCC(=O)N1)C(=O)N[C@@H](CCCN=C(N)N)C(=O)N1CCC[C@H]1C(=O)NCC(N)=O` (stereo in doubt), the “activity change, positive = activation” value was inactive: -14.5%.

`CC1CCCCN1C(=O)CN1CCSc2ccccc21` (stereo unspecified): the “activity change, positive = activation” value is inactive: -6.24%. The same measure for `CCC(=O)Nc1ccc(CC)cc1-c1nc2ccccc2n(CC(=O)c2ccc(OC)cc2)c1=O`: inactive: -16.2%; for `Cc1ccc(-c2cc(NC(=O)c3cccc(C)c3)on2)cc1`: inactive: 9.33%; for `O=S(=O)(NCc1ccc(F)cc1)c1ccc2[nH]c3c(c2c1)CCCC3`: inactive: -27.7%.
